# Results reported in paper PMC4336329 (PLoS ONE, 2015).
# Screen size: about 310,000 compounds; about 2,200 (0.71%) showed an effect of 50% or more. Effects have a minus sign here. The list shows a part of the results.
# Target: human ether-à-go-go-related gene (hERG) potassium channel (human, UniProt Q12809)
# Experiment: primary screen, population patch clamp on CHO cells stably expressing hERG
# human ether-à-go-go-related gene (hERG) potassium channel, sequence (Q12809 whole entry, looked up): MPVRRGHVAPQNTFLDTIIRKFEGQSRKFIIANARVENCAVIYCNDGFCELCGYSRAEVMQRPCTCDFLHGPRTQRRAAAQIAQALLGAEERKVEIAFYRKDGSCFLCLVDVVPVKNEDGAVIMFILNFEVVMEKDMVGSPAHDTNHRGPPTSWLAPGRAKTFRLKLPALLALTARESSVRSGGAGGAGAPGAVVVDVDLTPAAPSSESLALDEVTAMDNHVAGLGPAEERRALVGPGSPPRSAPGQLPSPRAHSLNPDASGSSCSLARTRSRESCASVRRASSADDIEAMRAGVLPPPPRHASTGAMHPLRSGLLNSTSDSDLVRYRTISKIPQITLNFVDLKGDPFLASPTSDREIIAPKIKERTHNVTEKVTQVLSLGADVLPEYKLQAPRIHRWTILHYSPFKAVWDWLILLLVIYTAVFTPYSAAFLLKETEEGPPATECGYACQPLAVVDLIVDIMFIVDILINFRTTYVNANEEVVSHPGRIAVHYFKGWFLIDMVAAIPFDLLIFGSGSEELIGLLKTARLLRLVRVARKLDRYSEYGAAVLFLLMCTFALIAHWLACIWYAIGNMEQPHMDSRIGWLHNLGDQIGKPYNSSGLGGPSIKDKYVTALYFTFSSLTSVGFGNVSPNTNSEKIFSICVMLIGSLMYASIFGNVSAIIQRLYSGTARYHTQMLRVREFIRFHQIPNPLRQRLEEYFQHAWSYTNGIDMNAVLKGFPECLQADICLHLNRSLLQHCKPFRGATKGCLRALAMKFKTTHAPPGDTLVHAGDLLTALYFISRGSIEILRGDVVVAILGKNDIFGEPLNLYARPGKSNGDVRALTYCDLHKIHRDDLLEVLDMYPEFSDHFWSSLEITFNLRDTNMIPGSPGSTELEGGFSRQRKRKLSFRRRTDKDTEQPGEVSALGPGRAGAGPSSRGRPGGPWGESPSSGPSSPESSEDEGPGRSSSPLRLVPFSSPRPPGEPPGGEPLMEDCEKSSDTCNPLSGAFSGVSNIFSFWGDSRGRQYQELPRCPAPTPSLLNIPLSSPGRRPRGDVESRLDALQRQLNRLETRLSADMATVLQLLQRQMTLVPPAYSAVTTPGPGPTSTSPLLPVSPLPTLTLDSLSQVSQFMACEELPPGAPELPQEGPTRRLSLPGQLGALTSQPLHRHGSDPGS
row,Structure (SMILES),"hERG current change (%, negative = inhibition) at 1uM [%]"
1,CCCCOC(=O)Nc1nnc(-c2ccccc2OC)s1,12.2
2,O=C(Cc1nc2ccccc2[nH]1)c1ccc(Br)cc1,10.6
3,C=CCN1C(=O)c2ccc(C(=O)N(C)CC(=O)Nc3ccccc3C(F)(F)F)cc2C1=O,5.61
4,CCCCn1c(O)c(C(C)=NCc2ccc(F)cc2)c(=O)[nH]c1=O,16.9
5,CN1C(=O)CC(c2ccccc2)C1=O (stereo not drawn),12.5
6,CC1CCN(C(=O)c2ccc(NC(=O)C3CCCO3)cc2)CC1 (stereo not drawn),12
7,O=C(NN1C(=O)C2C(c3ccccc3)C=CC(c3ccccc3)C2C1=O)c1cccc(Br)c1 (stereo not drawn),14
8,COC(=O)C(NC(C)=O)(Nc1ccc(C)cn1)C(F)(F)F (stereo not drawn),21.1
9,Cc1cc(C)cc(NC(=S)NCc2cccnc2)c1,-2.42
10,CCC(=O)N1c2ccc(S(=O)(=O)N(CCO)Cc3ccccc3)cc2CC1C (stereo not drawn),-2.82
11,COc1ccc(OCc2n[nH]c(=S)o2)cc1,5.46
12,NC(=O)C1CCN(C(=O)C2CCC(=O)N(C3CCCCCC3)C2)CC1 (stereo not drawn),7.15
13,O=C(N/N=C/c1c[nH]c2ccccc12)c1cc(-c2ccc(-c3ccccc3)cc2)n[nH]1,12
14,Cc1ccc2ccc[n+](Cc3ccccc3)c2c1.[Br-],5.61
15,CN1C(=O)c2cccc3c(S(=O)(=O)NCc4ccco4)ccc1c23,-20
16,CCOc1ccc(C(C)(N)C(=O)O)cc1 (stereo not drawn),-1.32
17,CC(C)c1ccc(-c2nn[nH]n2)cc1,10.2
18,C#CCOCCOCCOCCNc1nc(N2CCN(C(=O)CCCCCCCCCCNC(=O)[C@@H](CCC(=O)O)n3cc(CCCCCN)nn3)CC2)nc(N2CCN(C(=O)CCCCCCCCCCNC(=O)[C@H](CO)n3cc(CCCCCN)nn3)CC2)n1,7.08
19,CC(C)Oc1ccc(C(=O)Nc2ccc(N3CCCCC3)cc2)cc1,11.3
20,CC12CN3CCN(CC(C3)/C1=N/N=C/c1cccc([N+](=O)[O-])c1)C2,12.2
21,COCCn1c(CN2CCC(Cc3ccccc3)CC2)nc2c1c(=O)n(C)c(=O)n2C,-3.7
22,CCCN(CCC)C(=O)NC1CC(=O)N(c2ccc(OC)cc2)C1 (stereo not drawn),9.05

row,Structure (SMILES),"hERG current change (%, negative = inhibition) at 1uM [%]"
1,Cc1cc(=O)[nH]c(SCC(=O)c2ccc(F)c(C)c2)n1,11.9
2,COc1cccc(C(=O)Nn2cnnc2)c1,14.2
3,CC1(C)Cc2c(cnn2-c2ccc(F)cc2)C(NC(=O)CCn2cncn2)C1 (stereo not drawn),-40.7
4,CCCS(=O)(=O)N1CCN(Cc2ccccc2[N+](=O)[O-])CC1.O=C(O)C(=O)O,3.36
5,COc1ccccc1C(=O)NNC(=O)c1ccccc1F,8.36
6,Clc1ccc(OCc2nnc3n2N=C(c2ccc4c(c2)OCCO4)CS3)c(Cl)c1,10.5
7,Cn1c(Cn2c(=O)sc3ccccc32)nnc1SCc1ccc(F)cc1,-9.62
8,COC(=O)CSc1nc(C)cc(Oc2ccccc2)n1,7.59
9,Cc1ccc(C)c(N2CCN(S(=O)(=O)c3ccc4c(c3)CC(C)N4C(=O)C3CC3)CC2)c1 (stereo not drawn),15.5
10,COc1ccc(CNC(=O)COC(=O)c2ccc(OCC3CCCO3)cc2)cc1 (stereo not drawn),8.5
11,CN(C)S(=O)(=O)c1ccc(N2CCCC2)c(C(=O)N2CCN(S(=O)(=O)c3cccc(F)c3)CC2)c1,18.1
12,CC(C)(C)CN1CCNC(=O)C1CC(=O)NCCc1ccccc1F (stereo not drawn),2.89
13,Nc1c(C(=O)Nc2ccc3c(c2)OCCO3)nnn1Cc1cccc(F)c1,6.29
14,CC(C)(C)NC(=O)CSc1ncnc2c1nnn2Cc1ccccc1Cl,6.84
15,COc1cc2c(cc1NC(=O)COc1ccccc1OC)oc1ccccc12,6.52
16,Cc1oc2ccc(OC(C(=O)O)c3ccccc3)cc2c1C(=O)O (stereo not drawn),6.15
17,Cc1ccc(CNC(=O)CSc2nc(C)cs2)cc1,6.56
18,COc1ccc(N(CC(=O)N2CCc3ccccc3C2)S(=O)(=O)c2ccccc2)cc1,3.33
19,CCOC(=O)c1c2c(n(C)c1COC)C(=O)C(=O)c1ccc(Br)cc1-2,8.94
20,O=C(Nc1cc(Cl)ccc1N1CCCC1)C1=NN(c2ccccc2)C(=O)CC1,17
21,COc1ccc(C(=O)NCc2ccc(-c3nc4ccccc4s3)cc2)cc1,16.5
22,O=C(CN(Cc1ccc(F)cc1)C(=O)C1CSC(=O)C1)NC1CCCCC1 (stereo not drawn),0.316

row,Structure (SMILES),"hERG current change (%, negative = inhibition) at 1uM [%]"
1,CCCN(CCC)CCNC(=O)c1cc2c(-c3ccccc3F)nn(C)c2s1,6.33
2,COc1ccc(CN(CC(=O)NCc2ccc(F)cc2)C(=O)CCC(=O)Nc2nccs2)cc1,-2.33
3,Cc1ccc([N+](=O)[O-])cc1,7.62
4,CN(CC(=O)NCCc1ccccc1)S(=O)(=O)c1cccs1,12.8
5,Cn1c(SCC(=O)Nc2cc(Cl)cc(Cl)c2)nnc1-c1ccc2nonc2c1,14
6,CCOC(=O)CNC(=O)C1(/C=C/c2ccccc2)CC(=O)N1c1ccc(C)cc1 (stereo not drawn),8.37
7,CCOc1ccc(NC(=O)C2CC(=O)N(c3ccccc3F)C2)cc1 (stereo not drawn),11.1
8,CCC1CCCCN1C(=S)NC1CCCCC1 (stereo not drawn),11.8
9,Cc1cc2cc(C#N)c(NCCNC(=S)NCCCN3CCOCC3)nc2cc1C,-1.58
10,Cc1ccccc1NC(=O)CSC1=NCCN1.Cl,14.3
11,Cc1ccccc1C1c2[nH]c3ccccc3c2CCN1C(=O)c1ccc(=O)n(C)n1 (stereo not drawn),7.28
12,COc1ccc(OC)c2c1cc(C(=O)N[C@@H](Cc1ccccc1)C(=O)O)n2C,6.35
13,COc1cccc(C2C(C(=O)Nc3ccc(C)cc3C)=C(C)Nc3ncnn32)c1OC (stereo not drawn),8.03
14,CC(C)C[C@@H](CC#N)N1CCN(Cc2ccccc2)CCC1=O,10.4
15,Cc1ccc(S(=O)(=O)c2nc(-c3ccccc3)oc2NCc2cccnc2)cc1,7.82
16,Cc1ccc(-c2nc(COC(=O)c3c(C)noc3C)cs2)cc1,1.75
17,O=C(OCC1OC(Oc2ccc(O)cc2)C(O)C(O)C1O)c1ccccc1 (stereo not drawn),12.4
18,CS(=O)(=O)Nc1ccc(C(=O)NCc2ccc3c(c2)OCO3)cc1,-3.54
19,CCCCOc1cccc(NC(=O)CSc2nncn2C)c1,4.76
20,CC(C)OCCCNC(=O)NC12CC3CC(CC(C3)C1)C2,6.16
21,O=C(CN(Cc1ccc(Br)cc1)S(=O)(=O)c1ccccc1)NCc1ccccn1,5.09
22,Cc1cccc(CN2CCNC2=O)c1,11.5

row,Structure (SMILES),"hERG current change (%, negative = inhibition) at 1uM [%]"
1,COc1ccc(C(C)(C)C)cc1NC(=O)Cn1cnnn1,11.9
2,O=[N+]([O-])c1ncccc1OCc1ccc(Br)cc1F,14.8
3,Cc1[nH]n(-c2ccccc2)c(=O)c1C(c1ccccc1[N+](=O)[O-])C(C#N)C#N (stereo not drawn),7.07
4,CC(=O)Nc1ccc(NC(=O)COC(=O)c2c(-c3ccccc3)noc2C)cc1,7.61
5,CCOC(=O)CN(C#N)c1nc(N(C)C)nc(N(C)C)n1,0.959
6,O=C(Nc1ccc(Cl)cn1)C1C(c2ccccc2)C1(Cl)Cl (stereo not drawn),21.9
7,O=C(CN1CCN(S(=O)(=O)N2CCCCC2)CC1)Nc1cc(Cl)cc(Cl)c1,-12.2
8,O=c1c(OC2OC(CO)C(O)C(O)C2OC2OC(CO)C(O)C(O)C2OC2OC(CO)C(O)C(O)C2O)c(-c2ccc(O)c(O)c2)oc2cc(O)cc(O)c12 (stereo not drawn),15.5
9,COc1ccccc1CO/N=C/c1cccn1-c1nccc(N(C)C)c1C#N,1.23
10,COC(=O)c1ccc(OCC(=O)c2ccccc2OC)cc1,1.86
11,CCN1CCCC1CNCC(=O)Nc1ccc(OC(F)(F)F)cc1.O=C(O)C(=O)O (stereo not drawn),-40.4
12,COc1ccc(S(=O)(=O)N(CCc2ccccc2)CC(=O)NC(C)C)cc1,-0.239
13,O=C(OCC#CCSc1nnc(-c2ccncc2)o1)c1cccs1,-14.8
14,C=CCN1C(=O)c2ccc(C(=O)OCC(=O)N3CCN(c4ccccc4)CC3)cc2C1=O,5.74
15,CCOC(=O)c1cc(S(=O)(=O)Nc2ccc(F)cc2F)cn1C,15.2
16,CCN(C(=O)CSc1cc(C)c2ccc(OC)cc2n1)C1CCS(=O)(=O)C1 (stereo not drawn),8.63
17,COc1ccc(S(=O)(=O)N2CCC(C(=O)Oc3cccc(C)c3)CC2)cc1OC,20.9
18,Cc1ccc(C(=O)OCC(=O)N(CC(C)C)c2c(N)n(Cc3ccccc3)c(=O)[nH]c2=O)cc1[N+](=O)[O-],8.6
19,COc1cc(NC(=O)c2c(F)cccc2F)c(Cl)cc1Cl,10.1
20,COc1ccc(N(CC(=O)NCc2ccc(Cl)cc2)S(=O)(=O)c2c(C)n[nH]c2C)cc1,1.42
21,CC(=O)N1CCN(C(=O)c2c(-c3ccccc3)noc2C)CC1,-1.98
